PubChem BioAssay AID743449 (Broad Institute, 2014)
The campaign covered roughly 9,900 compounds. About 90 (0.9%) were called active. The inconclusive results got no clear call from the source; some entries with a clear call stand among them for comparison.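 Rule for the calls: active = mean normalized replicate activity at least 50 and at least half of replicates each reaching 50; inconclusive = only one of the two criteria met; inactive = neither criterion met.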

Test: reduction of CTGF mRNA in DLD1 cells – DLD1 colon cancer cells, RT-qPCR, single point, primary screen (AID 743449);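 note: 0% = neutral control wells and 100% = dasatinib control wells; higher means stronger suppression of CTGF expression like dasatinib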
Conditions: 24 h, at 12.5 µM, hits give high values

Structure (SMILES)	inhibition
N#C[C@@H]1[C@@H](c2ccccc2C2=CCCC2)[C@H](CO)N1C(=O)Cc1ccncc1	inconclusive: 36.5%
CN(C)C(=O)c1ccc(-c2cccc(-c3nc(C(=O)NCc4ccccc4)cc4c3[C@@H](CCO)N([S@](=O)C(C)(C)C)C4)c2)cc1	inconclusive: 49.9%
COc1ccc(NC(=O)N(C)C[C@@H]2Oc3ccc(NC(=O)Nc4cccc5ccccc45)cc3CC(=O)N([C@H](C)CO)C[C@@H]2C)cc1	inconclusive: 24%
C[C@@H]1CN([C@@H](C)CO)C(=O)c2ccccc2-c2ccccc2CO[C@@H]1CN(C)Cc1ccc(Oc2ccccc2)cc1	inactive: 44.4%
Cc1noc(C)c1NC(=O)N(C)C[C@@H]1Oc2cc(C#CCN(C)C)ccc2S(=O)(=O)N([C@H](C)CO)C[C@H]1C	inactive: -1.27%
CCNC(=O)C[C@H]1CC[C@@H]2[C@H](COC[C@H](O)CN2C(=O)C2CCCC2)O1	inactive: -1.66%
O=C([C@H]1N[C@H]2c3ccc(/C=C/c4ccccc4)c(=O)n3C[C@H]2[C@@H]1CO)N1CCCCC1	inconclusive: 35.7%
O=C(CCN1CCCCC1)N[C@H]1CC[C@H](CC(=O)N2CCC(Cc3ccccc3)CC2)O[C@H]1CO	inconclusive: 34.8%
C[C@H]1CN([C@@H](C)CO)C(=O)c2cccc(N(C)C)c2O[C@@H]1CN(C)C(=O)Nc1ccc(F)cc1	inconclusive: 35.3%
C/C=C/c1ccc([C@@H]2[C@@H](CN(C)C(C)=O)N(C(=O)NC(C)C)[C@H]2CO)cc1	inconclusive: 39.9%
C[C@@H]1CN([C@@H](C)CO)C(=O)CCCn2nncc2CO[C@@H]1CN(C)S(=O)(=O)c1ccc2c(c1)OCCCO2	inconclusive: 26.6%
C[C@@H]1CC=CC[C@@H](c2ccc3c(c2)OCO3)NC(=O)[C@H](C)N(C)C(=O)c2ccccc2O1 (mixture of isomers)	inconclusive: 29%
CCS(=O)(=O)Nc1ccc2c(c1)C(=O)N(C)[C@H]1CC[C@@H](CC(=O)N[C@H]3CCN(Cc4ccccc4)C3)O[C@H]1CO2	inconclusive: 22.6%
C[C@@H]1CN([C@H](C)CO)S(=O)(=O)c2ccc(C#CCC3CCCC3)cc2O[C@@H]1CN(C)C(=O)c1cnccn1	inconclusive: 19.3%
O=C(c1ccccc1F)N1CC[C@H]2[C@H](CO)Nc3ccc(Br)cc3[C@H]21	inactive: -3.54%
COCCNC(=O)C[C@@H]1C[C@H]2c3cc(NC(=O)CN(C)C)ccc3O[C@H]2[C@H](CO)O1	inactive: 0.098%
O=C(CC1CC1)N1CC(=O)N2[C@@H](CO)[C@H](c3ccc(/C=C/c4ccccc4)cc3)[C@@H]2C1	active: 52.4%
O=C(C[C@H]1C[C@@H]2c3cc(NS(=O)(=O)c4ccc(F)cc4)ccc3O[C@@H]2[C@H](CO)O1)N1CCc2ccccc2C1	inconclusive: 43.4%
O=C(Nc1ccc2c(c1)[C@H]1C[C@@H](CC(=O)N3CCc4ccccc4C3)O[C@@H](CO)[C@H]1O2)c1ccc2c(c1)OCO2	active: 61.8%

Structure (SMILES)	inhibition
C[C@@H]1CN([C@H](C)CO)C(=O)CCCn2nncc2CO[C@@H]1CN(C)C(=O)c1cc(-c2ccccc2)on1	active: 66%
COc1ccc(S(=O)(=O)Nc2ccc3c(c2)C(=O)N([C@@H](C)CO)C[C@H](C)[C@@H](CN(C)S(=O)(=O)c2ccc(Cl)cc2)OCCCC[C@@H](C)O3)cc1	active: 50.6%
CN(C[C@@H]1[C@@H](c2ccccc2)[C@@H](CO)N1Cc1ccccn1)S(C)(=O)=O	inconclusive: 42.2%
C[C@H]1CN([C@@H](C)CO)C(=O)c2cccc(NC(=O)c3nc4ccccc4s3)c2O[C@@H]1CN(C)C(=O)Nc1ccc2c(c1)OCO2	active: 78.9%
CCS(=O)(=O)Nc1ccc2c(c1)C(=O)N(C)[C@@H]1CC[C@@H](CC(=O)N[C@@H]3CCN(Cc4ccccc4)C3)O[C@H]1CO2	inconclusive: 41.2%
CCCC(=O)Nc1ccc2c(c1)C(=O)N(C)[C@H]1CC[C@@H](CC(=O)N3CCCCC3)O[C@@H]1CO2	inactive: -2.53%
CS(=O)(=O)N1CC2(C1)[C@H](c1ccccc1)[C@@H](CO)N2Cc1ccccc1	inconclusive: 19.3%
C[C@@H]1CN([C@H](C)CO)C(=O)CCCn2cc(nn2)CO[C@H]1CN(C)C(=O)CCC(F)(F)F	inconclusive: 30.2%
C[C@H](CO)N1C[C@H](C)[C@H](CN(C)C(=O)Nc2cccc3ccccc23)Oc2ncccc2C1=O	inconclusive: 37.6%
Cc1ccc(S(=O)(=O)Nc2cccc3c2O[C@H](CN(C)C(=O)Nc2ccc(C(F)(F)F)cc2)[C@@H](C)CN([C@H](C)CO)C3=O)cc1	inconclusive: 47.4%
COCC(=O)Nc1ccc2c(c1)C(=O)N(C)[C@@H]1CC[C@@H](CC(=O)NC3Cc4ccccc4C3)O[C@@H]1CO2	inconclusive: 46.1%
COc1cccc(S(=O)(=O)N2CC[C@H]3[C@H](CO)Nc4ccc(C#Cc5cccnc5)cc4[C@H]32)c1	inconclusive: 17.6%
O=C(c1ccccc1)N1CC(=O)N2[C@H](C1)[C@@H](c1ccc(-c3ccccc3)cc1)[C@@H]2CO	inconclusive: 32.9%
C[C@H](CO)N1C[C@H](C)[C@H](CN(C)S(=O)(=O)c2ccc(Oc3ccccc3)nc2)OCc2cnnn2CCCC1=O	inconclusive: 13.9%
COc1ccc([C@@H]2C/C=C\C[C@@H](c3ccc4c(c3)OCO4)NC(=O)[C@H](c3ccccc3)CC(=O)N2)c(OC)c1	inactive: 31%
COc1ccc(CN(C)C[C@H]2Oc3ccc(NC(=O)Nc4ccc5c(c4)OCO5)cc3CC(=O)N([C@@H](C)CO)C[C@@H]2C)cc1	inactive: -64.7%
CCN1Cc2cc(C(=O)Nc3nccs3)nc(-c3cccc(C4=CCCC4)c3)c2[C@H]1CCO	inactive: -15.8%
O=C(C[C@H]1C[C@H]2c3cc(NS(=O)(=O)c4ccc(F)cc4)ccc3O[C@H]2[C@H](CO)O1)N1CCc2ccccc2C1	inconclusive: 30%
O=C(C[C@@H]1CC[C@@H]2[C@H](COC[C@@H](O)CN2Cc2cc(F)ccc2F)O1)NCc1ccc(Oc2ccccc2)cc1	inconclusive: 30.9%
